Structures can show the parent of a compound that is named as a salt. ± gives the standard deviation of the averaged measurements. Whole data set: some 2,600 compounds, median “total cell number (DAPI+ nuclei) relative to DMSO vehicle control” near -1.4, cut for the lowest 2% near -23. This is one part of the list.
The compounds below were run on jimpy (Plp1 jimpy) mouse iPSC-derived oligodendrocyte progenitor cells (assay: total cell number (DAPI+ nuclei) relative to DMSO vehicle control (SDs above negative control mean); higher = more surviving cells). Details: 10 µM; 3 days.

Point of comparison: `CC[C@@H]1C(=O)OC[C@@H]1Cc1cncn1C` [(+)-Pilocarpine hydrochloride], total cell number -1.32. Against it:
- CC(=O)NS(=O)(=O)c1ccc(N)cc1 [Sulfacetamide Sodium] — higher, 0.39
- CCN(CC)CC(=O)Nc1c(C)cccc1C [Lidocaine] — higher, -1.04
- CCN(CC)CC(=O)Nc1c(C)cccc1C [Lidocaine hydrochloride] — lower, -1.34
- CC(C=CC(=O)NO)=CC(C)C(=O)c1ccc(N(C)C)cc1 (configuration not stated) [Trichostatin A (TSA)] — lower, -19.9
- c1ccc2c(CC3=NCCN3)cccc2c1 [Naphazoline HCl] — lower, -1.57
- c1ccc2c(CC3=NCCN3)cccc2c1 [Naphazoline hydrochloride] — higher, -0.634
- CC(=O)OCC(=O)[C@@]12OC(C)(C)O[C@@H]1C[C@H]1[C@@H]3C[C@H](F)C4=CC(=O)C=C[C@]4(C)[C@@]3(F)[C@@H](O)C[C@@]12C [Fluocinonide] — higher, 4.92
- CSC(=N)NCCC[C@H](N)C(=O)O [S-Methyl-L-thiocitrulline acetate] — higher, -0.614
- S=C(S)N1CCCC1 [Ammonium pyrrolidinedithiocarbamate] — lower, -3.35
- NS(=O)(=O)c1cc2c(cc1Cl)NC(C1CC3C=CC1C3)NS2(=O)=O (configuration not stated) [Cyclothiazide] — higher, 0.585
- CN(c1ccccc1CNc1nc(Nc2ccc3c(c2)CC(=O)N3)ncc1C(F)(F)F)S(C)(=O)=O — lower, -11.1
- Cc1cnc(-c2cc(N3CCN(C(=O)CCS(C)(=O)=O)CC3)ncc2Cl)c(C)c1 — higher, -0.754
- Cc1c(CN2CCN(C(=O)[C@H](C)O)CC2)sc2c(N3CCOCC3)nc(-c3cnc(N)nc3)nc12 — lower, -11.4
- CN1C(=O)CC[C@H]1c1cccnc1 [(-)-Cotinine] — lower, -1.76
- CC(C)(CO)c1cc2cc(NC(=O)C3(c4ccc5c(c4)OC(F)(F)O5)CC3)c(F)cc2n1C[C@@H](O)CO — higher, 1.48
- CC[C@@H]1C(=O)OC[C@@H]1Cc1cncn1C [Pilocarpine nitrate] — lower, -3.94
- CC[C@@H]1C(=O)OC[C@@H]1Cc1cncn1C [Pilocarpine HCl] — lower, -1.44
- CN1CCc2c(c3ccccc3n2Cc2ccc(C(=O)NO)cc2)C1 [Tubastatin A] — higher, 6.4
- CN1CCc2c(c3ccccc3n2Cc2ccc(C(=O)NO)cc2)C1 [Tubastatin A HCl] — lower, -7.34
- O=C(Nc1cc(C(F)(F)F)cc(C(F)(F)F)c1)Nc1c(Br)cc(Br)cc1-c1nn[nH]n1 — lower, -1.73
- CCn1c(=O)[nH]c2cc(Cl)c(Cl)cc21 — lower, -2.56
- COc1cc2nccc(Oc3ccc(NC(=O)NC4CC4)c(Cl)c3)c2cc1C(N)=O [Lenvatinib (E7080)] — lower, -9.34
- CCC(C)(Oc1ccc(C2(c3ccc(OC(C)(CC)C(=O)O)cc3)CCCCC2)cc1)C(=O)O (configuration not stated) [Clinofibrate] — higher, 1.25
- C[C@@H](O[C@H]1OCCN(Cc2nn(P(=O)(O)O)c(=O)[nH]2)[C@H]1c1ccc(F)cc1)c1cc(C(F)(F)F)cc(C(F)(F)F)c1 [Fosaprepitant dimeglumine salt] — lower, -3.79
- N[C@@H](Cc1c[nH]c2ccccc12)C(=O)O [L-Tryptophan] — higher, -0.41
- Nc1cc(=O)[nH]c(N)n1 [2,4-Diamino-6-pyrimidinone] — lower, -1.65
- OC[C@H]1O[C@@H](n2cnc3c(N[C@H]4CCC[C@@H]4O)ncnc32)[C@H](O)[C@@H]1O — higher, 0.458
- Cc1ncc(-c2ccnc(Nc3ccc(S(C)(=O)=O)cc3)n2)n1C(C)C — lower, -9.56
- COC1(C2=NCCN2)COc2ccccc2O1 (configuration not stated) — higher, -0.239
- CS(=O)(=O)OCCCCOS(C)(=O)=O [Busulfan] — higher, -0.973
- O=C(/C=C/c1ccc(O)cc1)c1ccc(O)cc1O [Isoliquiritigenin] — lower, -3.58 ± 1.2
- OCc1c[nH]c2ccccc12 [Indole-3-carbinol] — higher, -0.339
- N#CCNC(=O)c1ccc(-c2ccnc(Nc3ccc(N4CCOCC4)cc3)n2)cc1 — lower, -12.5
- NC(=O)c1cccc(-c2cccc(OC(=O)NC3CCCCC3)c2)c1 — higher, -0.118
- Cc1[nH]c(=O)c(C#N)cc1-c1ccc2nccn2c1 [Olprinone hydrochloride] — lower, -1.44
- CC(=O)O[C@H]1C(=O)[C@@]2(C)[C@H]([C@H](OC(=O)c3ccccc3)[C@]3(O)C[C@H](OC(=O)[C@H](O)[C@@H](NC(=O)c4ccccc4)c4ccccc4)C(C)=C1C3(C)C)[C@]1(OC(C)=O)CO[C@@H]1C[C@@H]2O [Paclitaxel] — lower, -11.8
- N=C(N)c1ccc(N)cc1 [4-Aminobenzamidine dihydrochloride] — higher, -0.771
- CCCN(CCC)CCc1cccc2c1CC(=O)N2 [Ropinirole hydrochloride] — higher, -1.07
- CCCN(CCC)CCc1cccc2c1CC(=O)N2 [Ropinirole HCl] — higher, -0.778
- COc1cccc2c1C(=O)c1c(O)c3c(c(O)c1C2=O)C[C@@](O)(C(=O)CO)C[C@@H]3O[C@H]1C[C@H](N)[C@@H](O)[C@H](C)O1 [Epirubicin HCl] — higher, 51.3
- Cc1nc2ccccn2c(=O)c1CCN1CCC(C(=O)c2ccc(F)cc2)CC1 [Pirenperone] — lower, -4.23
- CSc1nc2cc(Cl)c(Oc3cccc(Cl)c3Cl)cc2[nH]1 [Triclabendazole] — higher, -0.896
- CCC(=O)c1ccc2c(c1)N(CCCN(C)C)c1ccccc1S2 [Propionylpromazine hydrochloride] — lower, -5.65
- Nc1ccc(-c2ccc3ncc4ccc(=O)n(-c5cccc(C(F)(F)F)c5)c4c3c2)cn1 [Torin 2] — lower, -11.1
- CCCn1c(=O)c2[nH]c(C3CCCC3)nc2n(CCC)c1=O [8-Cyclopentyl-1,3-dipropylxanthine] — lower, -1.91
- N/C(=N\C(=O)c1nc(Cl)c(N)nc1N)NCc1ccccc1 [Benzamil hydrochloride] — lower, -2.91
- O=C(CCNNC(=O)c1ccncc1)NCc1ccccc1 [Nialamide] — higher, -1.28
- CCCCCCCCCCCCCCCCn1cc[n+](Cc2ccccc2)c1C — lower, -16.7
- C#Cc1cccc(Nc2ncnc3cc(OCCOC)c(OCCO)cc23)c1 — lower, -11.5
- Cn1cnc2c(F)c(Nc3ccc(Br)cc3F)c(C(=O)NOCCO)cc21 — lower, -6.75
- Nc1nc(N)c(N=O)c(OCC2CCCCC2)n1 — lower, -6.36

— the supplement of paper PMC6135742
